From the supplement of paper PMC8728848
This is one part of the list.

Tests used:
Assay in all cases: glycan array binding signal (z-score within array); higher = stronger binding
Settings in all cases: glycan notation: IUPAC condensed, linker removed
[1] = target: Neu5Ac(a2-3)Gal(b1-3)[Fuc(a1-4)]GlcNAc(b1-3)Gal(b1-4)[Fuc(a1-3)]GlcNAc
In short: (§1)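 The binding signal is a Z-score computed within each array. Data were drawn from 3228 arrays in the Consortium for Functional Glycomics database, restricted to those with a known protein sequence. Scores were averaged over arrays of the same protein sequence at different concentrations or buffers, and over linkers, and negative values can be taken as non-binding.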

[2] = target: Neu5Ac(a2-3)Gal(b1-3)[Neu5Ac(a2-3)Gal(b1-4)]GlcNAc
In short: as §1

[3] = target: Neu5Ac(a2-3)Gal(b1-3)[Neu5Ac(a2-6)]GalNAc
In short: as §1

Neu5Ac(a2-3)Gal(b1-4)Glc = target: Neu5Ac(a2-3)Gal(b1-4)Glc
In short: as §1

[4] = target: Neu5Ac(a2-3)Gal(b1-4)GlcNAc
In short: as §1

[5] = target: Neu5Ac(a2-3)Gal(b1-4)GlcNAc(b1-2)Man(a1-3)[GlcNAc(b1-2)Man(b1-4)GlcNAc(b1-2)Man(a1-6)]Man(b1-4)GlcNAc(b1-4)GlcNAc
In short: as §1

[6] = target: Neu5Ac(a2-3)Gal(b1-4)GlcNAc(b1-2)Man(a1-3)[Neu5Ac(a2-6)Gal(b1-4)GlcNAc(b1-2)Man(a1-6)]Man(b1-4)GlcNAc(b1-4)GlcNAc
In short: as §1

[7] = target: Neu5Ac(a2-3)Gal(b1-4)GlcNAc(b1-3)Gal(b1-3)GlcNAc
In short: as §1

[8] = target: Neu5Ac(a2-3)Gal(b1-4)GlcNAc(b1-3)Gal(b1-4)GlcNAc
In short: as §1

[9] = target: Neu5Ac(a2-3)Gal(b1-4)GlcNAc(b1-3)Gal(b1-4)GlcNAc(b1-3)Gal(b1-4)GlcNAc
In short: as §1

[10] = target: Neu5Ac(a2-3)Gal(b1-4)GlcNAc(b1-3)Gal(b1-4)[Fuc(a1-3)]GlcNAc
In short: as §1

[11] = target: Neu5Ac(a2-3)Gal(b1-4)GlcNAc(b1-6)[Gal(b1-3)]GalNAc
In short: as §1

[12] = target: Neu5Ac(a2-3)Gal(b1-4)GlcNAc(b1-6)[Neu5Ac(a2-3)Gal(b1-3)]GalNAc
In short: as §1

[13] = target: Neu5Ac(a2-3)Gal(b1-4)GlcNAc6S
In short: as §1

[14] = target: Neu5Ac(a2-3)Gal(b1-4)[Fuc(a1-3)]GlcNAc
In short: as §1

[15] = target: Neu5Ac(a2-3)Gal(b1-4)[Fuc(a1-3)]GlcNAc(b1-3)Gal
In short: as §1

[16] = target: Neu5Ac(a2-3)Gal(b1-4)[Fuc(a1-3)]GlcNAc(b1-3)Gal(b1-4)GlcNAc
In short: as §1

[17] = target: Neu5Ac(a2-3)Gal(b1-4)[Fuc(a1-3)]GlcNAc(b1-3)Gal(b1-4)[Fuc(a1-3)]GlcNAc(b1-3)Gal(b1-4)[Fuc(a1-3)]GlcNAc
In short: as §1

[18] = target: Neu5Ac(a2-3)Gal(b1-4)[Fuc(a1-3)]GlcNAc(b1-6)[Gal(b1-3)]GalNAc
In short: as §1

[19] = target: Neu5Ac(a2-3)Gal(b1-4)[Fuc(a1-3)]GlcNAc6S
In short: as §1

[20] = target: Neu5Ac(a2-3)Gal6S(b1-4)GlcNAc
In short: as §1

[21] = target: Neu5Ac(a2-3)Gal6S(b1-4)[Fuc(a1-3)]GlcNAc
In short: as §1

Neu5Ac(a2-3)GalNAc = target: Neu5Ac(a2-3)GalNAc
In short: as §1

[22] = target: Neu5Ac(a2-3)GalNAc(b1-4)GlcNAc
In short: as §1

[23] = target: Neu5Ac(a2-3)[GalNAc(b1-4)]Gal(b1-4)Glc
In short: as §1

[24] = target: Neu5Ac(a2-3)[GalNAc(b1-4)]Gal(b1-4)GlcNAc
In short: as §1

[25] = target: Neu5Ac(a2-3)[Neu5Ac(a2-6)]GalNAc
In short: as §1

Neu5Ac(a2-6)Gal = target: Neu5Ac(a2-6)Gal
In short: as §1

Neu5Ac(a2-6)Gal(b1-4)Glc = target: Neu5Ac(a2-6)Gal(b1-4)Glc
In short: as §1

B1: mLPHN-1 (Mus musculus), Q80TR1 (protein)
chain: MARLAAALWSLCVTTVLVTSATQGLSRAGLPFGLMRRELACEGYPIELRCPGSDVIMVENANYGRTDDKICDADPFQMENVQCYLPDAFKIMSQRCNNRTQCVVVAGSDAFPDPCPGTYKYLEVQYDCVPYIFVCPGTLQKVLEPTSTHESEHQSGAWCKDPLQAGDRIYVMPWIPYRTDTLTEYASWEDYVAARHTTTYRLPNRVDGTGFVVYDGAVFYNKERTRNIVKYDLRTRIKSGETVINTANYHDTSPYRWGGKTDIDLAVDENGLWVIYATEGNNGRLVVSQLNPYTLRFEGTWETGYDKRSASNAFMVCGVLYVLRSVYVDDDSEAAGNRVDYAFNTNANREEPVSLAFPNPYQFVSSVDYNPRDNQLYVWNNYFVVRYSLEFGPPDPSAGPATSPPLSTTTTARPTPLTSTASPAATTPLRRAPLTTHPVGAINQLGPDLPPATAPAPSTRRPPAPNLHVSPELFCEPREVRRVQWPATQQGMLVERPCPKGTRGIASFQCLPALGLWNPRGPDLSNCTSPWVNQVAQKIKSGENAANIASELARHTRGSIYAGDVSSSVKLMEQLLDILDAQLQALRPIERESAGKNYNKMHKRERTCKDYIKAVVETVDNLLRPEALESWKDMNATEQVHTATMLLDVLEEGAFLLADNVREPARFLAAKQNVVLEVTVLNTEGQVQELVFPQEYPSENSIQLSANTIKQNSRNGVVKVVFILYNNLGLFLSTENATVKLAGEAGTGGPGGASLVVNSQVIAASINKESSRVFLMDPVIFTVAHLEAKNHFNANCSFWNYSERSMLGYWSTQGCRLVESNKTHTTCACSHLTNFAVLMAHREIYQGRINELLLSVITWVGIVISLVCLAICISTFCFLRGLQTDRNTIHKNLCINLFLAELLFLVGIDKTQYEVACPIFAGLLHYFFLAAFSWLCLEGVHLYLLLVEVFESEYSRTKYYYLGGYCFPALVVGIAAAIDYRSYGTEKACWLRVDNYFIWSFIGPVSFVIVVNLVFLMVTLHKMIRSSSVLKPDSSRLDNIKSWALGAIALLFLLGLTWAFGLLFINKESVVMAYLFTTFNAFQGVFIFVFHCALQKKVHKEYSKCLRHSYCCIRSPPGGTHGSLKTSAMRSNTRYYTGTQSRIRRMWNDTVRKQTESSFMAGDINSTPTLNRGTMGNHLLTNPVLQPRGGTSPYNTLIAESVGFNPSSPPVFNSPGSYREPKHPLGGREACGMDTLPLNGNFNNSYSLRSGDFPPGDGGPEPPRGRNLADAAAFEKMIISELVHNNLRGASGGAKGPPPEPPVPPVPGVSEDEAGGPGSADRAEIELLYKALEEPLLLPRAQSVLYQSDLDESESCTAEDGATSRPLSSPPGRDSLYASGANLRDSPSYPDSSPEGPNEALPPPPPAPPGPPEIYYTSRPPALVARNPLQGYYQVRRPSHEGYLAAPSLEGPGPDGDGQMQLVTSL
glycan array binding signal (z-score) [1]: -0.207 | glycan array binding signal (z-score) [2]: -0.26 | glycan array binding signal (z-score) [3]: -0.372 | glycan array binding signal (z-score) (Neu5Ac(a2-3)Gal(b1-4)Glc): -0.085 | glycan array binding signal (z-score) [4]: -0.042 | glycan array binding signal (z-score) [5]: -0.365 | glycan array binding signal (z-score) [6]: 0.068 | glycan array binding signal (z-score) [7]: 0.063 | glycan array binding signal (z-score) [8]: -0.055 | glycan array binding signal (z-score) [9]: -0.433 | glycan array binding signal (z-score) [10]: -0.402 | glycan array binding signal (z-score) [11]: -0.321 | glycan array binding signal (z-score) [12]: -0.36 | glycan array binding signal (z-score) [13]: 0.645 | glycan array binding signal (z-score) [14]: -0.127 | glycan array binding signal (z-score) [15]: -0.184 | glycan array binding signal (z-score) [16]: 0.073 | glycan array binding signal (z-score) [17]: -0.378 | glycan array binding signal (z-score) [18]: 0.142 | glycan array binding signal (z-score) [19]: 0.276 | glycan array binding signal (z-score) [20]: -0.345 | glycan array binding signal (z-score) [21]: -0.065 | glycan array binding signal (z-score) (Neu5Ac(a2-3)GalNAc): 0.587 | glycan array binding signal (z-score) [22]: -0.288 | glycan array binding signal (z-score) [23]: -0.653 | glycan array binding signal (z-score) [24]: -0.307 | glycan array binding signal (z-score) [25]: -0.186 | glycan array binding signal (z-score) (Neu5Ac(a2-6)Gal): -0.169 | glycan array binding signal (z-score) (Neu5Ac(a2-6)Gal(b1-4)Glc): 0.002
